In the RNAGym collection of RNA variant scans (doi:10.7554/elife.90254):
The source gives no read counts; variants with many changes may rest on few reads.

B1: LINE1-mini (parent)
chain: GGCAGAGCUCAACACAGCGUGGCAAAGUGGCUGUGGCUAGACUGCC

Variants of: B1
Test: self-cleavage, relative activity (ratio to wild type); higher = more cleavage; in vitro, sequencing; the parent is a self-cleaving ribozyme

Variant | self-cleavage
G17U G29U C31U | 0.08
G1C C15A C23U G29A | 0.03
A4G G5A G33A | 0.16
G21U U43G C46G | 0.08
C8A U9C A11G | 0.04
C3U A6C G21C G35C C37A A41C | 0.01
G1U C8U A12C G36A | 0.05
A11G G21U G22C G30C U38A A41C | 0
A6C A11G C15A G36A C46A | 0.01
U9G C13A G33A | 0.06
C10U G21A C46A | 0.6
G17A A25U G29C | 1.64
C23A G29A U38G | 0.02
A11U C37A U38A U43C | 0.04
G5A G19U G36U | 0.03
C10A U20C A24G C31U U34A | 0
G21A C23U A24C | 1.22
C10A A24G G40A | 0.02
A4C G17A C23G G35U | 0.25
G2C C8G C18G U34G | 0.01
A11U U34A G35C | 0.03
C10G C18U A26G G33A | 0.01
A4C C8U G22C C42A | 0.01
C8G C10U G35A | 0.06

Variant | self-cleavage
G5C C13U C23A | 0.09
C13A C15U G19A A25C | 0.15
G2A C18A C37U C46U | 0.05
A6C U28G G40C | 0.05
G19A A24G G40C | 0.05
A4C A6U G33U | 0.01
A12U C45U C46U | 0.28
C8U C15G G40A C46A | 0.67
A12C A14C G21U U32C | 0.04
G5U A11G C23G G40A C42G | 0.01
G7C C8G G17C C46G | 0.05
A6C U38C C42A | 0.05
U28G G30U U32G | 0.16
A11G C23G A39U | 0.04
G1C G19A U28G G36A A39G | 0.02
U9G C31U C37G | 0
C18U U28C U32G U38A G44U | 0.03
G5C G19U G30C G33U G40C | 0.01
G19U A26G U38G | 0.07
U20C U28A G36C | 0.06
A4U A39G C46U | 0.08
A4G U38A G44C C46U | 0.02
G29A C42G C46G | 0.03
G7U C8U G29A C31U C45U | 0.08

Variant | self-cleavage
C10A G21C C46G | 0.01
C23A C42G C46U | 0.02
G1C C10A C31U G35U C37U G40U | 0
U9A A25U U34G | 0.03
G19U U20A A41C U43G C46A | 0.01
G1U G30U G33C | 0.02
G2A U9G G17A U20G U38C | 0.28
C8A G29A U32C | 0.14
C3A C15A A24G U38G C46A | 0.2
G5A A6G A26G G29A | 0.03
C3U G17C A39C | 0.06
A11G G19A U28C | 0.02
C3G G19A G44C | 2.53
G2U A12C A24G U28G | 0.01
G1U A6C A11G A25G U28A G40C | 0.01
A4G C8G A25G U28C G29C | 0.01
G19C G22A C37A | 0.02
C3U A4C U9A C31A C42G C45A | 0.07
C13A G17A C37A | 0.08
G1U G2U C15A | 0.01
A4G A14G C15G C18U G30U C31A C42G | 0.43
C3A G5U C10U G29C | 0.01
A6G C23A G29U G40A | 0.02
C13A A16U G33A U34G C37U | 0.06

Variant | self-cleavage
C3G G19U G21C A41U | 0.09
G21A G30A G33U G36U C42A C45U | 0.03
C8A C15G G17U A25U | 0.21
U32G G36U C42A | 0.01
A14U U20C A25C C37A | 0.03
C10A C18A U20A G44A | 0.01
U9A U34C G44A | 0.04
A4U C37U G40C | 0.05
G5U C15A A16C G29C G33A | 0.09
A26C G36U C42U | 0.06
G17C C31A G36A | 0.05
G2C A6C G30A C37A G44C | 0.08
G1A C10G C46U | 0.68
A11U C15U C18G C23A U28A A41G | 0.02
G17A G19A A24G A26C | 0.34
G5A U32A U38C A39C C42A | 0.04
A24U A41G G44A | 0.1
C8A G17C C18G | 0.2
C3G A16G G27C G33U | 0.09
G2U A11U A14U G19U A26C | 0
G19A U20C A41C | 0.01
G5A A39U C45A | 0.03
C15G C23U C37A C45G | 0.01
A4C C8U C18U G22C G27C U34G C37U C45A | 0.03

Variant | self-cleavage
A14C G29C G30C U34G | 0.1
G2A C10U G40U | 0.02
C8G A14G C37U | 0.06
G2A A11U G40U | 0.03
G2A A6C U20C G27U G33A U34G | 0.05
A6G U28A U38A | 0.03
A12U A24G G30U | 2.1
G17C C18G A39C | 0.01
C8G U32G U43A | 0.03
A4C G5C A41U | 0
G2A G7U C8A G44A | 0.69
U20A U32G C42U | 0.02
G2A C18A U38C | 0.07
A12U G21C C37A A41U | 0.04
A16U U20C A25G U28C A41C | 0.02
C31G G33A C37U | 0.06
C3A G22U A26U G33C C45G | 0.03
G17C C18A G22U G27A | 0.07
C23G U32A U38C A39G | 0.05
U9A G33U U43A | 0.33
C15G G17A A39C | 0.02
G1U C3A A4G U9G C31A A41U | 0.01
G1A G17C U28A | 0.62
C3U G5A C37A | 0.12

Variant | self-cleavage
G17A A25G U38A | 0.02
G7U C15A G29U G33A U34A | 0.02
A14C G19A A41C | 0.02
C10G C15U C23A A24U | 0.49
G1C C15U C31U | 0.01
A4U A16U G21U A26U | 0.19
G22C A25C U32G | 0.06
G17U G19C G36C U43C | 0.03
A14G C23G G35A | 0.22
A14G G19A U32A | 0.02
A4G A11G G35A | 0.02
G2U A4U G5A A6C G36C | 0.03
C8A A24U C37A | 0.3
G1C A16U C18A C31A C37U | 0
A12C G19A G36U | 0.05
A4U C10A C45U | 0.03
G1A G7A A24U U28A G40C U43G | 0.06
G2A C10A G17C U38A | 0.04
G17U A39U C42A U43C | 0.02
A12G C13A G22C U32A C37A C42A U43G | 0.26
G5C G44U C46A | 0.14
U9C G19U C23U A39U C45G | 0.01
G7A G19U A39U | 0.03
G7A A11U A14U U34G U38A A39G | 0

Variant | self-cleavage
A4C G29A G30U G35C | 0.74
A4U G17C G21C G27C | 0.5
G5U U34A G44C | 0.03
A12C C15A G21C A26U C31U A39C U43G C46A | 0.01
C23G C37A C45G | 0.02
G1A A14G C15U G19U A26U C46A | 0.04
G1A C18A G22A C23A A26C | 0.28
G5U G17U U34C | 0.06
C8A C15G G19A U38C | 0.61
C10U U32A A39U G44U | 0
C15A G19C G27A U32C U38A | 0.02
G21A U32G G36C | 0.05
G19C A24C U28G G29A U43A | 0.14
C10A A16G G19C G21C G35U | 0
G5U A6U U9G G17U | 0.02
A16G G27A G35U | 0.29
G17A A24C G29C G33A | 0.03
C3U G5C C13A G30C | 0.11
C15U A16C G35A U38A | 0.01
A12C A25G C37A | 0
G5A C8A G29U G40U | 1.24
G2A A12G G27U G33C C42U G44U | 0.08
G5U G44C C45U | 0.08
